The source of these data is ChEMBL document CHEMBL4689842, “EUbOPEN Chemogenomics Library wave 1” (2021).

Common to all, as to format: toxicity, cell-based
One data set concerns Fibroblast. In words: Multiplex assay against human fibroblast. In a few lines: (§1)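 Live cells were stained at seeding with Hoechst33342, BioTracker Green Microtubule Cytoskeleton Dye, MitoTracker Red and Annexin V Alexa Fluor 680, then imaged on a CQ1 microscope at 37°C and 5% CO2 after compound addition. CellPathfinder machine-learning gating split cells into Hoechst high-intensity objects or normal cells. Normal cells were split into healthy, pyknosed or fragmented nuclei, and pyknosed cells into mitotic or apoptotic. Tubulin, mitochondrial-mass and membrane-permeability phenotypes are per cents of healthy-nucleus cells.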

A further data set deals with U2OS. Nature of the data set: Multiplex assay against U2OS. The following applies: human. In short, it runs like this: as §1
The subject of a further data set is HEK-293T. In words: Multiplex assay against HEK293T.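 On Population Tubulin-Different-Phenotype (%): share of the cells with healthy nuclei that show this phenotype.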 Conditions: human. In a few lines:
as §1

The mark [1] stands for this setting: 12 h, 1 µM, compound concentration 1 uM, replicate 1.
The mark [2] stands for this setting: 12 h, 1 µM, compound concentration 1 uM, replicate 2.
Where [3] appears, read: 24 h, 1 µM, compound concentration 1 uM, replicate 1.
The mark [4] stands for this setting: 24 h, 1 µM, compound concentration 1 uM, replicate 2.
[5] abbreviates: 12 h, 10 µM, compound concentration 10 uM, replicate 2.
[6] abbreviates: 24 h, 10 µM, compound concentration 10 uM, replicate 1.
Setting [7] is: 24 h, 10 µM, compound concentration 10 uM, replicate 2.
The mark [8] stands for this setting: 12 h, 10 µM, compound concentration 10 uM, replicate 1.

For part of its entries the source gives two or more results. This is not the full list of results. The source may hold further records. Values given together repeat one measurement across runs, samples, wells, individuals or studies.

For `CN([C@@H](Cc1ccc(OS(=O)(=O)c2cccc3cnccc23)cc1)C(=O)N1CCN(c2ccccc2)CC1)S(=O)(=O)c1cccc2cnccc12`, the “Population Mitochondria Different-Phenotype (%)” value with Fibroblast (setting [1]) was 3% and 12%. Besides, the “Population Membrane Permeable-Phenotype (%)” value with Fibroblast (setting [2]) is 17% and 60%. For the same compound, the “Population Mitochondria Different-Phenotype (%)” value in the data set on Fibroblast (setting [3]) is 17% and 5%. Moreover, in the data set with Fibroblast (setting [4]), the “Population Apoptotic (%)” value was 100% and 16%; the “Population Mitotic Cells (%)” value is 0% and 83%.
As to `CCN(CC)S(=O)(=O)Nc1cccc(-c2ccc3c(NC(=O)C4CC4)n[nH]c3c2)c1`, the “Population Membrane Permeable-Phenotype (%)” value in the data set on U2OS (setting [5]) was 19% and 5%; with U2OS (setting [6]), 19% and 4%. In addition, the “Population Mitochondria Different-Phenotype (%)” value was 25% and 6% with U2OS (setting [5]); 26% and 6% in the data set with HEK-293T (setting [5]); 11% and 1% in the data set on HEK-293T (setting [6]); 20% and 5% with Fibroblast (setting [5]); 5% and 28% in the data set on Fibroblast (setting [7]). Further, the “Population Fragmented Nuclei (%)” value was 8% and 1% with U2OS (setting [6]); 3% and 10% with HEK-293T (setting [5]); 30% and 3% in the data set with HEK-293T (setting [7]). Further, the “Population Tubulin-Different-Phenotype (%)” value in the data set with U2OS (setting [6]) was 8% and 25%; in the data set with HEK-293T (setting [6]) it was 8% and 1%; in the data set on HEK-293T (setting [7]), 4% and 31%; in the data set with Fibroblast (setting [7]), 10% and 57%. The “Population Pyknosed Nuclei (%)” value was 17% and 5% in the data set on U2OS (setting [7]); 20% and 4% in the data set with HEK-293T (setting [5]); 43% and 8% in the data set on HEK-293T (setting [6]); 2% and 25% with HEK-293T (setting [7]). In the data set on HEK-293T (setting [7]), the “Total Cell Count” value is 3004 and 923. For the same compound, the “Population Apoptotic (%)” value in the data set with Fibroblast (setting [7]) is 14% and 75%. In addition, the “Population Mitotic Cells (%)” value with Fibroblast (setting [7]) is 85% and 25%.
Turning to `Cl.O=C(c1ccc(Nc2nccc(-c3cc4ccccc4s3)n2)cc1)N1CCC(N2CCCC2)CC1`, in the data set on U2OS (setting [5]), the “Population Hoechst High Intensity Objects (%)” value is 21% and 6%; the “Population Mitotic Cells (%)” value was 6% and 29%. Further, in the data set on HEK-293T (setting [8]), the “Total Cell Count” value was 826 and 177. Besides, in the data set on HEK-293T (setting [5]), the “Population Apoptotic (%)” value was 24% and 88%; the “Population Healthy Nuclei (%)” value was 38% and 2%; the “Population Mitotic Cells (%)” value is 75% and 11%; the “Total Cell Count” value was 1190 and 173. Further, in the data set on HEK-293T (setting [6]), the “Population Mitochondria Different-Phenotype (%)” value was 0% and 65%; the “Population Tubulin-Different-Phenotype (%)” value is 0% and 78%; the “Total Cell Count” value was 170 and 783. Also, in the data set on HEK-293T (setting [7]), the “Population Healthy Nuclei (%)” value was 13% and 4%; the “Population Mitotic Cells (%)” value is 41% and 0%; the “Total Cell Count” value was 953 and 169. For the same compound, the “Population Membrane Permeable-Phenotype (%)” value in the data set with Fibroblast (setting [8]) is 46% and 13%. For the same compound, in the data set with Fibroblast (setting [6]), the “Population Healthy Nuclei (%)” value was 9% and 2%. Further, in the data set with Fibroblast (setting [7]), the “Population Healthy Nuclei (%)” value is 3% and 16%; the “Population Mitochondria Different-Phenotype (%)” value was 0% and 100%.
`COc1cc(N2CCC(N3CCN(C)CC3)CC2)ccc1Nc1ncnc(Nc2ccccc2S(=O)(=O)C(C)C)n1` [ASP-3026]: the “Population Tubulin-Different-Phenotype (%)” value was 50% and 7% in the data set on Fibroblast (setting [8]); 66% and 18% in the data set on Fibroblast (setting [5]); 44% and 4% in the data set on Fibroblast (setting [6]); 57% and 13% in the data set on Fibroblast (setting [7]). Moreover, the “Population Mitochondria Different-Phenotype (%)” value in the data set on Fibroblast (setting [7]) was 42% and 0%. For the same compound, in the data set on Fibroblast (setting [7]), the “Population Mitotic Cells (%)” value is 50% and 0%.
In the case of `Cn1nc(C(=O)NCc2ccc(C(=O)O)cc2)cc1-c1ccc2[nH]ccc2c1` [BI 4395], the “Population Apoptotic (%)” value in the data set with U2OS (setting [5]) is 50% and 0%. Moreover, the “Population Apoptotic (%)” value in the data set on HEK-293T (setting [7]) is 1% and 8%. Also, the “Population Membrane Permeable-Phenotype (%)” value with Fibroblast (setting [8]) was 10% and 3%. For the same compound, in the data set on Fibroblast (setting [5]), the “Population Mitotic Cells (%)” value is 57% and 0%; the “Population Pyknosed Nuclei (%)” value was 17% and 5%; the “Population Tubulin-Different-Phenotype (%)” value was 33% and 0%. Further, the “Population Apoptotic (%)” value in the data set on Fibroblast (setting [7]) is 0% and 100%.
For `COCC(=O)NC/C=C/c1ccc2ncnc(Nc3ccc(Oc4ccc(C)nc4)c(C)c3)c2c1` [CP-724714], the “Population Apoptotic (%)” value with U2OS (setting [2]) was 46% and 0%; with Fibroblast (setting [2]), 12% and 72%. For the same compound, the “Population Pyknosed Nuclei (%)” value in the data set with U2OS (setting [2]) was 14% and 3%; in the data set on HEK-293T (setting [2]), 27% and 5%; in the data set on HEK-293T (setting [3]), 32% and 9%; in the data set with HEK-293T (setting [4]) it was 31% and 2%. For the same compound, the “Population Tubulin-Different-Phenotype (%)” value in the data set on U2OS (setting [2]) was 100% and 20%; in the data set on U2OS (setting [4]), 100% and 19%; in the data set with HEK-293T (setting [1]) it was 91% and 8%; in the data set with HEK-293T (setting [2]) it was 98% and 13%; in the data set with HEK-293T (setting [3]) it was 92% and 11%; in the data set on HEK-293T (setting [4]), 96% and 17%. In addition, the “Population Tubulin-Different-Phenotype (%)” value in the data set with Fibroblast (setting [1]) was 73% and 12%; with Fibroblast (setting [3]), 70% and 7%; in the data set with Fibroblast (setting [4]), 11% and 66%. Moreover, the “Population Membrane Permeable-Phenotype (%)” value in the data set with U2OS (setting [3]) is 39% and 10%; with HEK-293T (setting [1]) it was 30% and 5%; in the data set with HEK-293T (setting [2]), 15% and 4%; in the data set on Fibroblast (setting [3]) it was 15% and 4%. Besides, the “Population Mitochondria Different-Phenotype (%)” value in the data set with U2OS (setting [3]) is 51% and 11%; in the data set with HEK-293T (setting [1]), 30% and 6%; with HEK-293T (setting [2]), 54% and 10%; in the data set on HEK-293T (setting [3]) it was 44% and 4%; with HEK-293T (setting [4]), 60% and 2%; with Fibroblast (setting [1]), 12% and 2%. For the same compound, the “Population Mitochondria Different-Phenotype (%)” value in the data set with Fibroblast (setting [2]) was 11% and 44%; in the data set on Fibroblast (setting [3]) it was 20% and 2%. Besides, the “Population Fragmented Nuclei (%)” value with HEK-293T (setting [2]) was 1% and 5%; in the data set on HEK-293T (setting [4]), 3% and 20%. Besides, the “Population Mitotic Cells (%)” value with Fibroblast (setting [2]) is 87% and 27%.
For `C[C@H]1Oc2cc(cnc2N)-c2c(nn(C)c2C#N)CN(C)C(=O)c2ccc(F)cc21` [LORLATINIB], in the data set with U2OS (setting [2]), the “Population Fragmented Nuclei (%)” value was 5% and 19%. Besides, the “Population Tubulin-Different-Phenotype (%)” value in the data set with Fibroblast (setting [1]) is 41% and 7%; with Fibroblast (setting [3]) it was 28% and 6%. Also, the “Population Mitochondria Different-Phenotype (%)” value was 6% and 28% with Fibroblast (setting [2]); 4% and 1% in the data set with Fibroblast (setting [3]). The “Population Healthy Nuclei (%)” value in the data set with Fibroblast (setting [4]) is 7% and 25%. Further, in the data set with Fibroblast (setting [4]), the “Population Pyknosed Nuclei (%)” value was 36% and 8%.
